# According to the supplement of paper PMC6089552:
# Among all 3,200 compounds or so, about 300 (9.4%) showed activity. Only a part is listed here, and it is no random draw.
# Test system: A673/TR/shEF
# Test: cell viability (LOESS-normalised, relative to median of negative controls) (log2 ratio); higher = more viable cells (less compound effect), active = hit call of the paper (over 3 MAD below the median)
# Conditions: treatment time: 72 h
# Method in brief: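 A673/TR/shEF Ewing sarcoma cells were plated at 1,500 per well in 384-well plates and cultured with or without doxycycline, added 24 h before compounds, to induce EWS-FLI1 shRNA knockdown. Library compounds at two or more concentrations, alongside DMSO controls, were applied for three days. Cell viability was measured by CellTiter-Glo luminescence on an Envision reader. Readings were LOESS-corrected per plate, divided by the median of negative controls and log2-transformed, and hits were wells lying at least three median absolute deviations from the median of all screened wells.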
# [1] = 0.25 µM, library screen: screen1, EWS-FLI1 expression: high (no doxycycline)
# [2] = 0.25 µM, library screen: screen1, EWS-FLI1 expression: low (doxycycline-induced shRNA knockdown)
# [3] = 2.5 µM, library screen: screen1, EWS-FLI1 expression: high (no doxycycline)
# [4] = 2.5 µM, library screen: screen1, EWS-FLI1 expression: low (doxycycline-induced shRNA knockdown)
# [5] = 0.103 µM, library screen: screen3, EWS-FLI1 expression: high (no doxycycline)
# [6] = 0.103 µM, library screen: screen3, EWS-FLI1 expression: low (doxycycline-induced shRNA knockdown)
# [7] = 0.308 µM, library screen: screen3, EWS-FLI1 expression: high (no doxycycline)
# [8] = 0.308 µM, library screen: screen3, EWS-FLI1 expression: low (doxycycline-induced shRNA knockdown)
# [9] = 0.926 µM, library screen: screen3, EWS-FLI1 expression: high (no doxycycline)
# [10] = 0.926 µM, library screen: screen3, EWS-FLI1 expression: low (doxycycline-induced shRNA knockdown)
# [11] = 2.8 µM, library screen: screen3, EWS-FLI1 expression: high (no doxycycline)
# [12] = 2.8 µM, library screen: screen3, EWS-FLI1 expression: low (doxycycline-induced shRNA knockdown)
# [13] = 8.3 µM, library screen: screen3, EWS-FLI1 expression: high (no doxycycline)
# [14] = 8.3 µM, library screen: screen3, EWS-FLI1 expression: low (doxycycline-induced shRNA knockdown)
# [15] = 25 µM, library screen: screen3, EWS-FLI1 expression: high (no doxycycline)
# [16] = 25 µM, library screen: screen3, EWS-FLI1 expression: low (doxycycline-induced shRNA knockdown)
# [17] = 2.5 µM, library screen: screen2, EWS-FLI1 expression: high (no doxycycline)
smiles,measurement,setting,value
CCC(=O)O[C@]1(C(=O)CCl)[C@@H](C)C[C@H]2[C@@H]3CCC4=CC(=O)C=C[C@]4(C)[C@@]3(F)[C@@H](O)C[C@@]21C,cell viability (log2),[1],inactive: 0.0718
same,cell viability (log2),[2],inactive: -0.281
same,cell viability (log2),[3],inactive: 0.136
same,cell viability (log2),[4],inactive: -0.439
CN1CCN(c2c(F)cc3c(=O)c(C(=O)O)cn(CCF)c3c2F)CC1,cell viability (log2),[5],inactive: 0.0583
same,cell viability (log2),[6],inactive: 0.0739
same,cell viability (log2),[7],inactive: 0.00683
same,cell viability (log2),[8],inactive: 0.129
same,cell viability (log2),[9],inactive: 0.0814
same,cell viability (log2),[10],inactive: 0.0787
same,cell viability (log2),[11],inactive: 0.0244
same,cell viability (log2),[12],inactive: 0.0887
same,cell viability (log2),[13],inactive: 0.0703
same,cell viability (log2),[14],inactive: 0.0799
same,cell viability (log2),[15],inactive: 0.17
same,cell viability (log2),[16],inactive: 0.0882
C[C@H](CCC(=O)O)[C@H]1CC[C@H]2[C@@H]3[C@H](O)C[C@@H]4C[C@H](O)CC[C@]4(C)[C@H]3CC[C@]12C,cell viability (log2),[5],inactive: 0.151
same,cell viability (log2),[6],inactive: 0.163
same,cell viability (log2),[1],inactive: 0.126
same,cell viability (log2),[2],inactive: 0.0802
same,cell viability (log2),[7],inactive: 0.0927
same,cell viability (log2),[8],inactive: 0.168
same,cell viability (log2),[9],inactive: 0.111
same,cell viability (log2),[10],inactive: 0.101
same,cell viability (log2),[3],inactive: 0.188
same,cell viability (log2),[4],inactive: 0.133
same,cell viability (log2),[11],inactive: 0.11
same,cell viability (log2),[12],inactive: 0.118
same,cell viability (log2),[13],inactive: 0.0766
same,cell viability (log2),[14],inactive: 0.106
same,cell viability (log2),[15],inactive: 0.0921
same,cell viability (log2),[16],inactive: 0.144
CC(=O)N[C@@H]1[C@@H](O)[C@H](O)[C@@H](CO)O[C@H]1O,cell viability (log2),[1],inactive: 0.0385
same,cell viability (log2),[2],inactive: 0.0648
same,cell viability (log2),[3],inactive: 0.0809
same,cell viability (log2),[4],inactive: 0.0429
NNc1nncc2ccccc12,cell viability (log2),[5],inactive: 0.0359
same,cell viability (log2),[6],inactive: 0.035
same,cell viability (log2),[1],inactive: 0.0397
same,cell viability (log2),[2],inactive: -0.0283
same,cell viability (log2),"0.25 µM, library screen: screen2, EWS-FLI1 expression: high (no doxycycline)",inactive: 0.173
same,cell viability (log2),"0.25 µM, library screen: screen2, EWS-FLI1 expression: low (doxycycline-induced shRNA knockdown)",inactive: 0.0299
same,cell viability (log2),[7],inactive: -0.00515
same,cell viability (log2),[8],inactive: -0.000379
same,cell viability (log2),[9],inactive: 0.0532
same,cell viability (log2),[10],inactive: 0.0993
same,cell viability (log2),[3],inactive: 0.219
same,cell viability (log2),[4],inactive: 0.162
same,cell viability (log2),[17],inactive: 0.0604
same,cell viability (log2),"2.5 µM, library screen: screen2, EWS-FLI1 expression: low (doxycycline-induced shRNA knockdown)",inactive: 0.0341
same,cell viability (log2),[11],inactive: 0.0825
same,cell viability (log2),[12],inactive: 0.0408
same,cell viability (log2),[13],inactive: 0.1
same,cell viability (log2),[14],inactive: 0.121
same,cell viability (log2),[15],inactive: 0.0768
same,cell viability (log2),[16],inactive: 0.0926
NCC(O)CC(=O)O (stereo not drawn),cell viability (log2),[1],inactive: 0.135
same,cell viability (log2),[2],inactive: 0.0702
same,cell viability (log2),[3],inactive: 0.0842
same,cell viability (log2),[4],inactive: 0.0568
O=C(/C=C/c1ccc(O)c(O)c1)OCCc1ccccc1,cell viability (log2),[17],active: -0.129
COc1c2occc2c(OC)c2c(=O)cc(C)oc12,cell viability (log2),[1],inactive: 0.0471
same,cell viability (log2),[2],inactive: -0.0285
same,cell viability (log2),[3],inactive: 0.104
same,cell viability (log2),[4],inactive: -0.00533
O=C1CC(Nc2ccc(N3CCOCC3)cc2)C(=O)N1c1cccc(C(F)(F)F)c1 (stereo not drawn),cell viability (log2),[1],inactive: 0.0229
same,cell viability (log2),[2],inactive: 0.0506
same,cell viability (log2),[3],inactive: 0.0998
same,cell viability (log2),[4],inactive: 0.15
C1CNCCN1,cell viability (log2),[1],inactive: 0.0889
same,cell viability (log2),[2],inactive: 0.0996
same,cell viability (log2),[3],inactive: 0.0462
same,cell viability (log2),[4],inactive: 0.137
